The test system of this assay is 126254-015-R-J1-PDC complex spheroid growth, % test/control. In words: Anticancer human tumor 126254-015-R-J1-PDC patient-derived soft tissue sarcoma cell line growth inhibition [Asc]. The settings on record: compound alone 3 µM; stronger effect = lower value. How it is done: Multicellular complex tumor spheroid response to apoptosis pathway targeting inhibitors Alrizomadlin, Pelcitoclax, and Dasminapant in combination with a variety of drugs and investigational agents in selected tumor cell lines
The MDM2 inhibitor alrizomadlin, the Bcl-2/Bcl-xL inhibitor pelcitoclax, and the IAPs inhibitor dasminapant were evaluated both individually and in combination with standard of care and investigational anticancer small molecules within a complex spheroid model of solid tumors. . Complex spheroids include a stromal component modeled by human endothelial cells (HUVEC) and fibroblasts modeled by human mesenchymal stem cells (MSCs). The concentration ranges selected for each drug and investigational agent were based upon clinically achievable concentrations if the clinical Cmax of the agent was known.
Compounds. […] If the clinical Cmax for an agent had not been determined, the highest concentration tested was 10 microM. […]

This passage reports viability, T/C results from PubChem BioAssay AID1963429 (Molecular Pharmacology Branch, DTP, NCI, 2024).

Molecules are shown by their SMILES. Certain results were filed several times, with different values. They are shown here; other results are not. The source may hold further records. Values given together are repeats across runs, samples, wells, individuals or studies. Marks such as [2022-09] give the month of the run.
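Note: spheroids exposed to compound for seven days; 100% = DMSO vehicle control wells.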

Broadly, the viability, T/C is the result in the treated group divided by that in the control group, in per cent. For the compound `CCN1C(C(=O)NC23CCC(C(=O)O)(CC2)CC3)C(c2cccc(Cl)c2F)C2(C(=O)Nc3cc(Cl)ccc32)C12CCCCC2` (stereo unspecified), the viability, T/C is 92.1, 104, 88.6, 91.8, 91.2, 101, 94.7, 114, 100, 98.4, 93, 93.7, 91.5% [2022-09] and 103% [2022-10].
